Laboratory results as given in PMC7819943, “Rice protein-binding microarrays: a tool to detect cis-acting elements near promoter regions in rice”.
Some of the results follow.

target: T1, OsWOX13 (Oryza sativa, UniProt Q5QMM3 1-267); assay: protein-binding microarray (RPBM); PBS, 2% BSA, 51.3 ng/ul salmon testes DNA, 50 uM zinc acetate, 200 nM TF, 25 C, 1 h; high values mean tight binding; details: protein: recombinant; tags: N-terminal polyhistidine and DsRed monomer fusion (pET32a); label: CyDye5-dUTP incorporated in the synthesized complementary strand; 3' TTTTT single-stranded linker to array surface; dsDNA, one strand shown
T1 sequence: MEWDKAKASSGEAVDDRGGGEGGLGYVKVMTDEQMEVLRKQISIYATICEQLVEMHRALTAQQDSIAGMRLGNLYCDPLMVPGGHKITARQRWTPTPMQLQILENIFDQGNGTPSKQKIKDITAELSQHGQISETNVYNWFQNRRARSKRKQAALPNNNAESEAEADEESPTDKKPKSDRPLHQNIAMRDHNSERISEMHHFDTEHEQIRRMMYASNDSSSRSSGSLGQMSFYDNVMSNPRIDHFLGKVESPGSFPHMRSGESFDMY
Summary of the method: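 A custom Agilent array was converted to double-stranded form by primer extension with Cy5-dUTP and blocked with 2% BSA. Protein at 200 nM in PBS with 2% BSA, salmon testes DNA and 50 µM zinc acetate was applied for 1 h at 25 °C, followed by washing. The proteins were polyhistidine–DsRed N-terminal fusions of transcription factors, expressed in E. coli BL21-CodonPlus and Ni–NTA-purified. The binding signal is per-feature fluorescence intensity (arbitrary units) from an Axon 4000B scanner.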

Row | Sequence | binding signal
1 | AAAGTGACTGTAGATGATGTATTAATTTTGAAAGGTAGCACGGAGTCACCTAGTGCAG | 11700 fluorescence intensity (a.u.)
2 | TATGACTATCAATCTGTAAGAAGATGGACAACCCTCAATACGGAGTCACCTAGTGCAG | 12000 fluorescence intensity (a.u.)
3 | ATAACAAAATAAATTACAGATTTCGTCTGTAAACGAAACGCGGAGTCACCTAGTGCAG | 12700 fluorescence intensity (a.u.)
4 | AGTAATTGTCACCATACAAACACCCAGCACAACAATTTTACGGAGTCACCTAGTGCAG | 5040 fluorescence intensity (a.u.)
5 | CTTAAAATAATTTATCTTTGACCAAAGTCAAAACGTCTTACGGAGTCACCTAGTGCAG | 10600 fluorescence intensity (a.u.)
6 | AATAATTTTGCAAATAAATGATTAGATGATTCCCCACTTTCGGAGTCACCTAGTGCAG | 12800 fluorescence intensity (a.u.)
7 | CACACATTTGATATGATTTTGTAATGTCAATTCAAGATGACGGAGTCACCTAGTGCAG | 4920 fluorescence intensity (a.u.)
8 | AAACTATTCCTAATTAATAGATAACTTGCCATGCCGCATTCGGAGTCACCTAGTGCAG | 12800 fluorescence intensity (a.u.)
9 | GTAATACTAAATAATTAGTAATTGACTAGTTCCTGTCGGTCGGAGTCACCTAGTGCAG | 29700 fluorescence intensity (a.u.)
10 | TATAATTATATGTAGCTATGAAACTTTAGATGTATCGGGACGGAGTCACCTAGTGCAG | 20700 fluorescence intensity (a.u.)
11 | TGATGTGATTTAAATTTAATAGTATATAGAATGATTATTCCGGAGTCACCTAGTGCAG | 27100 fluorescence intensity (a.u.)
12 | TGCGAACTCGATTTCCAATCAAATGATCATCTGCCGCGGTCGGAGTCACCTAGTGCAG | 6020 fluorescence intensity (a.u.)
13 | TTTACCACTAACTACGCAATCAGTGCGGCCTGGCCCATCTCGGAGTCACCTAGTGCAG | 4440 fluorescence intensity (a.u.)
14 | CTCCATCATTCGATCTCAATCAAGCGATCGATCGTCCACACGGAGTCACCTAGTGCAG | 10100 fluorescence intensity (a.u.)
15 | TATAAACAACAGTAATTATAATTATATAATACTAATAGAGCGGAGTCACCTAGTGCAG | 17400 fluorescence intensity (a.u.)
16 | ATAATTAATTACCTCGCGAACTGACCGTCAGGGAGCGAGACGGAGTCACCTAGTGCAG | 20100 fluorescence intensity (a.u.)
17 | AAGAGGCCCATCATAATTGATAAAGTCATCAGTATATAGTCGGAGTCACCTAGTGCAG | 11300 fluorescence intensity (a.u.)
18 | TCTGCTTAAAAGGATGATTAAATTTTAGATTAAAGTGGCGCGGAGTCACCTAGTGCAG | 10200 fluorescence intensity (a.u.)
19 | CACGAAATTAATTTAGCTCTACATCCGTTCTGTTTATGAACGGAGTCACCTAGTGCAG | 8960 fluorescence intensity (a.u.)
20 | ACCCTTTGATTACGCTATCATTACTGACAATGACATGTGGCGGAGTCACCTAGTGCAG | 31600 fluorescence intensity (a.u.)
21 | ACGACTAATTATTATCTCAATGGAGAATGATGTATATGTTCGGAGTCACCTAGTGCAG | 27800 fluorescence intensity (a.u.)
22 | GTTCAGGAATTGATGCGGAATGAAGATTATGTGCTCCTGCCGGAGTCACCTAGTGCAG | 3620 fluorescence intensity (a.u.)
23 | TTTGATAGAACTGGTGTCATGTGCAATTCTCCTTTTCTCCCGGAGTCACCTAGTGCAG | 11200 fluorescence intensity (a.u.)
24 | TACAAATTTGAATCTGATTGAAATTCGCCAAATTGAAACCCGGAGTCACCTAGTGCAG | 45800 fluorescence intensity (a.u.)
25 | TCCGTACTCGTAATGACAATATTTAATTTAAACCTTCGGACGGAGTCACCTAGTGCAG | 3170 fluorescence intensity (a.u.)
26 | AGGTGTTTAATTGGGTTTCTGGGTCCAAAACTCCATAAGTCGGAGTCACCTAGTGCAG | 8570 fluorescence intensity (a.u.)
27 | TCACATGCATAATTAGAATAATTGAAAGGCCACAGATGGCCGGAGTCACCTAGTGCAG | 27000 fluorescence intensity (a.u.)

Row | Sequence | binding signal
28 | AATATCTAATTAGCTTTGAGGGCACTTAGCTCTGCAGTTCCGGAGTCACCTAGTGCAG | 12100 fluorescence intensity (a.u.)
29 | TTCACATTATTTCAATTTCAATCAAACTTTCGATTTTAGCCGGAGTCACCTAGTGCAG | 9030 fluorescence intensity (a.u.)
30 | TTAGTTTATACTCAATTAATCATTCGCTAATGGCTTACCTCGGAGTCACCTAGTGCAG | 5920 fluorescence intensity (a.u.)
31 | GTTTGACTTGTTACTGTATAAATTGTAGAATTTCGTCGCACGGAGTCACCTAGTGCAG | 4340 fluorescence intensity (a.u.)
32 | GTAAAATAATTGGAAGAGCCAGAGTTAGTTGTGCACATGCCGGAGTCACCTAGTGCAG | 21800 fluorescence intensity (a.u.)
33 | GAGAGGAGGGATTGATTTTCTTTCTCCTCCTCTTCTTGTTCGGAGTCACCTAGTGCAG | 4490 fluorescence intensity (a.u.)
34 | TAGTTAATCTACGGGACGTGACTGGCTGCTGCCTGGCAGACGGAGTCACCTAGTGCAG | 6620 fluorescence intensity (a.u.)
35 | TTAAATTAAAACTGAAATTACAGTCCTTCTTAACCTTCTCCGGAGTCACCTAGTGCAG | 11600 fluorescence intensity (a.u.)
36 | AACCCCATAATCTGAAAATAGATAGAATATATGGCTCTGACGGAGTCACCTAGTGCAG | 3570 fluorescence intensity (a.u.)
37 | ATCTATCTATCTATCTATCTATCTATCTATCTATCTATCTCGGAGTCACCTAGTGCAG | 20600 fluorescence intensity (a.u.)
38 | CCATTATCCATTTCATCTAATTATTTGGACTGCAGTTGCACGGAGTCACCTAGTGCAG | 5320 fluorescence intensity (a.u.)
39 | AAATCCTCAATTAATTCTAAAATTAAGTTATTCCAATTCACGGAGTCACCTAGTGCAG | 8850 fluorescence intensity (a.u.)
40 | TATTTAATTTTGTCAAAGACCACACAATATTTTACAACAACGGAGTCACCTAGTGCAG | 6810 fluorescence intensity (a.u.)
41 | TTTGGAAATTATCTATGAATTTACCTAGTTTCATCGTCCACGGAGTCACCTAGTGCAG | 4970 fluorescence intensity (a.u.)
42 | CCTAACCACCCTCTGATTAACACTCACCTAGTGCCTAATTCGGAGTCACCTAGTGCAG | 6890 fluorescence intensity (a.u.)
43 | GCATAATTAAGAACATATACTTTCCCAGCATGTTCTGTGACGGAGTCACCTAGTGCAG | 14800 fluorescence intensity (a.u.)
44 | TGGCATTTATCAATCACCATATTATAGTCCAGCACCAAAACGGAGTCACCTAGTGCAG | 4840 fluorescence intensity (a.u.)
45 | AATAGACTTAAATTGATAAATAATATTAGCTAAATTTGTACGGAGTCACCTAGTGCAG | 28900 fluorescence intensity (a.u.)
46 | TCACAAATTGCATTACCAGTGGTAGCTCCGGTGCCTTCTTCGGAGTCACCTAGTGCAG | 7610 fluorescence intensity (a.u.)
47 | GACCAATCAACGCAGCTCTCGTCTCCTCTGTTTATATAAACGGAGTCACCTAGTGCAG | 11200 fluorescence intensity (a.u.)
48 | AACTGCTGATTGTGATACACATGACCTGAACTCATTTTCTCGGAGTCACCTAGTGCAG | 11500 fluorescence intensity (a.u.)
49 | ATATATTTATTGATTAGAAACATCTATAGTCAGGGACCAACGGAGTCACCTAGTGCAG | 21200 fluorescence intensity (a.u.)
50 | GAAATGAATTGATCAAGGGCACGGTGGACCCGGCCCACGCCGGAGTCACCTAGTGCAG | 4980 fluorescence intensity (a.u.)
51 | ATTGCTAATTATGTGCAAGAGTGATGCTTGGGTTGGATAGCGGAGTCACCTAGTGCAG | 12400 fluorescence intensity (a.u.)
52 | ATGTAGAATTTTCCTAATTTTGAGTGGAAATTATTGAGCTCGGAGTCACCTAGTGCAG | 3640 fluorescence intensity (a.u.)
53 | ATTAATTGTTAACCTTGTATGTTTTAAGGGTATTTTGGGTCGGAGTCACCTAGTGCAG | 28100 fluorescence intensity (a.u.)
54 | AAAAGCAATAATTAACTGTTGAAAGGCCAAAAGTCCATAACGGAGTCACCTAGTGCAG | 13100 fluorescence intensity (a.u.)
